# Experimental data published in the supplement of paper PMC4166925.
# ± gives the standard deviation of the averaged measurements. Over roughly 33,000 sequences, “E-score (dimensionless, -0.5 to 0.5)” has its median near -0.046; the highest 2% begin near 0.36. The list shows a part of the results.
# Tested on: T1, SpTbr T-box DNA-binding domain (GST fusion)
# T1 sequence: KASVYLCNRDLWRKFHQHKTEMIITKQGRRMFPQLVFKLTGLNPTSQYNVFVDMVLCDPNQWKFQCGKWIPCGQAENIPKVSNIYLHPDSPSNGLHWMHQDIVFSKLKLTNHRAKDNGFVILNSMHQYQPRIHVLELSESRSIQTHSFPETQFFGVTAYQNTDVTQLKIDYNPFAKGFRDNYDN
# Test: PBM E-score of 8-mer (E-score (dimensionless, -0.5 to 0.5)); Tbr is Tbrain of the sea star Patiria miniata (Pm) or the sea urchin Strongylocentrotus purpuratus (Sp); higher = stronger binding preference; most listed sequences are background and not binding sites
# Conditions: the construct has about 5 more residues each side
# Summary of the method: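 Universal Agilent oligonucleotide arrays, made double-stranded by primer extension, were incubated with 200 nM GST-fused Tbr T-box DNA-binding domain in PBS (pH 7.5). The protein was expressed in BL21 E. coli at 20 °C and purified by glutathione affinity chromatography. After scanning and quantification, the Universal PBM Analysis Suite assigned an enrichment E-score to each ungapped 8-mer, averaged over duplicate arrays.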
row,Sequence,PBM E-score of 8-mer
1,AAGGTCGA,-0.204 ± 0.071
2,GGTAGTAA,-0.0268 ± 0.044
3,AGATTGCG,0.064 ± 0.013
4,GCGCGCTA,0.109 ± 0.053
5,GTATCTCA,0.106 ± 0.022
6,CACCGTCA,0.205 ± 0.02
7,CAGAGCTG,0.0374 ± 0.013
8,AATCAGAC,-0.165 ± 0.078
9,CTGGGAAA,0.0158 ± 0.035
10,AGTCATAA,-0.171 ± 0.052
11,GGAGAAAA,-0.0534 ± 0.045
12,AGATGACA,0.261 ± 0.019
13,TCATCTAA,-0.00051 ± 0.043
14,TATCCGGA,-0.202 ± 0.0085
15,CCACAACG,-0.0571 ± 0.034
16,GCCGTAAA,-0.163 ± 0.027
17,CAATCGTG,0.138 ± 0.026
18,CCGGGGCG,-0.104 ± 0.057
19,CATCCACG,-0.056 ± 0.067
20,GCCATGCA,-0.127 ± 0.018
21,ATTCTTTA,0.000875 ± 0.014
22,GTCTAGTA,-0.223 ± 0.014

row,Sequence,PBM E-score of 8-mer
1,ATGGCTGC,-0.0303 ± 0.008
2,ACGGAACG,-0.139 ± 0.013
3,ACTAGTTA,-0.0774 ± 0.05
4,CCTAATAC,-0.0192 ± 0.032
5,TCAGAAGA,-0.159 ± 0.1
6,CTTATAAA,-0.0933 ± 0.017
7,CGCAAACA,0.185 ± 0.005
8,CAGTGGCC,-0.0537 ± 0.04
9,CCCCTTGC,-0.154 ± 0.0037
10,CAAATAGC,-0.0983 ± 0.0097
11,CTCCTGTA,-0.177 ± 0.056
12,ACGACCGC,-0.0246 ± 0.0092
13,CAGGCTGC,-0.0209 ± 0.066
14,GTATTAAA,-0.208 ± 0.023
15,CCTAACAA,0.161 ± 0.035
16,CATCGCTC,-0.0535 ± 0.017
17,TAACGGTA,0.0285 ± 0.058
18,TACTTTGA,-0.188 ± 0.03
19,GGGTCCGA,-0.141 ± 0.015
20,GGATCGCA,0.208 ± 0.07
21,CCAGGAGA,-0.317 ± 0.0076
22,CATGGAGA,-0.191 ± 0.018

row,Sequence,PBM E-score of 8-mer
1,CCTGATAA,-0.153 ± 0.1
2,CCCCTAAA,-0.193 ± 0.027
3,ATTAGGAG,-0.247 ± 0.041
4,CCGATAAC,0.2129 ± 0.0014
5,ACAGTGAT,0.102 ± 0.051
6,AATGCGGG,-0.168 ± 0.02
7,ATGGAAGC,-0.211 ± 0.038
8,CAGACATC,-0.279 ± 0.042
9,GTTTTGAA,-0.265 ± 0.09
10,GGCGGTAA,0.0263 ± 0.05
11,CCAAGTGA,0.117 ± 0.037
12,ATCGCACC,0.47 ± 0.006
13,AAGGTTCC,-0.194 ± 0.084
14,GGCGTACC,-0.167 ± 0.008
15,CATAGATA,-0.176 ± 0.019
16,TTCGCGAA,0.3584 ± 0.0003
17,CGGAAAGC,-0.09084 ± 0.00053
18,AAACTTAG,-0.0393 ± 0.033
19,ATCTGCCC,-0.0559 ± 0.069
20,TCGATACA,-0.156 ± 0.051
21,CCGGTGAC,0.107 ± 0.014
22,ACTAGCAC,0.329 ± 0.04

row,Sequence,PBM E-score of 8-mer
1,CTCCGATA,-0.0115 ± 0.062
2,AGTTGTAA,0.111 ± 0.11
3,ATTTTATA,-0.136 ± 0.01
4,GCTTCTAC,-0.213 ± 0.018
5,AGCAATGG,-0.0492 ± 0.0048
6,GACCAGTC,-0.333 ± 0.075
7,ATGGTGAG,0.194 ± 0.0033
8,AGGACAGA,0.0786 ± 0.025
9,CTTGAATA,-0.249 ± 0.014
10,CCTCCCAA,-0.243 ± 0.051
11,ACGCTGCT,0.0165 ± 0.042
12,GAACTAGA,-0.205 ± 0.0011
13,GGAGGAGA,-0.0769 ± 0.035
14,CAAATTGC,-0.0419 ± 0.069
15,CGTCTCTA,-0.0622 ± 0.021
16,ATATGCTA,0.0317 ± 0.029
17,GCAAATAA,0.0696 ± 0.009
18,AACCGTCA,0.158 ± 0.01
19,CTGGCGAC,0.14 ± 0.0022
20,AACCTTCG,-0.0878 ± 0.018
